# Out of some 310,000 compounds screened, about 2,200 (0.71%) showed an effect of 50% or more. Effects have a minus sign here. The list shows a part of the results.
# Molecular target: human ether-à-go-go-related gene (hERG) potassium channel (human, UniProt Q12809)
# Test: primary screen, population patch clamp on CHO cells stably expressing hERG
# human ether-à-go-go-related gene (hERG) potassium channel, sequence (Q12809 whole entry, looked up): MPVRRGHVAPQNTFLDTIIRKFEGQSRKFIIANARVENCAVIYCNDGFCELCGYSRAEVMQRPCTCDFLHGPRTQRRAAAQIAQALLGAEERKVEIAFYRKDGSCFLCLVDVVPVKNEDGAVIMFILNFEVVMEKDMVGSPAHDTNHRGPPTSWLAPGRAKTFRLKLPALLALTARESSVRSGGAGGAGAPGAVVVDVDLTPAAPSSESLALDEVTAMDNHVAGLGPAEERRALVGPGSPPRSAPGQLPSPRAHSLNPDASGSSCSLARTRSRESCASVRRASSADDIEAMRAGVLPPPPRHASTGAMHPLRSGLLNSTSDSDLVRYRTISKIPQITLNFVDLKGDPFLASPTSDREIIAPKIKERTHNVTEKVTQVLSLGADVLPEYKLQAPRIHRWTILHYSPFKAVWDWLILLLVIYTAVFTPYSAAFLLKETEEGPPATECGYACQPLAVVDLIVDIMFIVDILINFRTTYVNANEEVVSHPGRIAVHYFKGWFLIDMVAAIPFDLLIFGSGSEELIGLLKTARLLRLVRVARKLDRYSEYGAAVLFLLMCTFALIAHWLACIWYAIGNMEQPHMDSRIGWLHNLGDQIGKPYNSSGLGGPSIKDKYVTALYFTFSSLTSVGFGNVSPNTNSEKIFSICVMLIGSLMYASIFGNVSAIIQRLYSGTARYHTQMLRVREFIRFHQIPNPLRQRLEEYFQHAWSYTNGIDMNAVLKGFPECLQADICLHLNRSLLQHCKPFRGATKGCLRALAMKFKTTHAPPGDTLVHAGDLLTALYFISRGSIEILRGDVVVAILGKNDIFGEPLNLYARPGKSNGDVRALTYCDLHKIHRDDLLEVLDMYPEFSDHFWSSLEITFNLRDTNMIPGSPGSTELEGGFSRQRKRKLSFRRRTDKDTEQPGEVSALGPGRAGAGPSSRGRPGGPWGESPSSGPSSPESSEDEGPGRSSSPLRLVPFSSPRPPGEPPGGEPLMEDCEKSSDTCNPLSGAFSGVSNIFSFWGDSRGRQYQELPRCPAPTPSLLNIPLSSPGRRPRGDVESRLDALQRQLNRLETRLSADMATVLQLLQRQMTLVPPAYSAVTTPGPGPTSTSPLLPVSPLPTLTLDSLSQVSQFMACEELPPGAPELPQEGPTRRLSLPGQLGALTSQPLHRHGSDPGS
row,SMILES,"hERG current change (%, negative = inhibition) at 1uM"
1,O=C(Nc1ccccc1N1CCOCC1)c1ccc(F)c(S(=O)(=O)N2CCOCC2)c1,5.19%
2,Cc1cccc(OC(=O)CN2C(=O)C3C4CCC(C4)C3C2=O)c1C (stereo not shown),9.47%
3,Cc1[nH]c2ccccc2c1C(=O)CSC(=S)N1CCCCC1,-1.04%
4,COc1ccc2c(c1)cc(C)c1nnc(SCC(=O)N(C)c3nc(-c4ccccc4)cs3)n12,19%
5,S=C(NCc1ccco1)N1CCN(c2ccccc2Cl)CC1,5.55%
6,COc1ccc(/C(C)=N/NC(=O)CCC(=O)Nc2ccc(Cl)cc2Cl)c(OC)c1,-0.337%
7,CCOc1ccc(S(=O)(=O)N2CCCCCC2)c2ccccc12,-1.32%
8,CCc1ccc(C(=O)/C=C/Nc2ccc(S(=O)(=O)Nc3onc(C)c3C)cc2)cc1,8.64%
9,CCCCn1c(N)c(N(CCOC)C(=O)c2ccc(Cl)c(S(=O)(=O)N3CCCC3)c2)c(=O)[nH]c1=O,11.4%
10,O=S(=O)(c1cccc2cccc(Cl)c12)N1CCCC1,6.88%
11,CC[n+]1c(/C=C/C=C/N(C(C)=O)c2ccccc2)sc2ccccc21.[I-],-52.2%
12,CCOc1ccc(NC(=O)NNC(=O)c2cc3ccccc3cc2O)cc1,5.2%
13,COc1ccc(C(C)=O)cc1COC(=O)CSCC(=O)Nc1ccc(C)cc1,-4.02%
14,CCCn1c(SCC(=O)Nc2cccc(S(=O)(=O)NC3=NCCCCC3)c2)nc2ccccc2c1=O,-2.57%
15,CC(=O)c1ccc(OCCNS(=O)(=O)c2ccc(-n3cnnn3)cc2)cc1,-10.4%
16,O=C(/C=C/c1ccc(F)cc1)NC(=S)NNC(=O)c1cccnc1,10.6%
17,O=C(N/C(=C/c1cccc([N+](=O)[O-])c1)C(=O)N1CCCC1)c1ccccc1,-0.775%
18,Cc1ccc(S(=O)(=O)NCc2ccc(C(=O)NC3CCC(C)CC3)cc2)cc1 (stereo not shown),12.7%
19,CCCn1c(=O)c(C(=O)NCc2ccccc2Cl)c(O)c2ccccc21,9.85%
20,Cc1ccc(C(=O)Nc2nnc(-c3ccc(C(C)(C)C)cc3)s2)cc1,7.36%
21,Cc1cc(NC(=O)CSc2nnc(COc3cccc(C)c3C)n2C)no1,12.2%
22,Cc1cc(C(=O)Nc2ncn(Cc3ccc(F)cc3)n2)ccc1[N+](=O)[O-],-21.7%
23,Cc1ccc(C(=O)OCCc2sc[n+](Cc3ccccc3)c2C)cc1.[Cl-],-30%
24,O=C(Nc1ccon1)c1cccc(S(=O)(=O)N2CCCCC2)c1,2.16%
25,CC(=O)c1ccc(NCC2COc3ccccc3O2)c([N+](=O)[O-])c1 (stereo not shown),7.67%
26,Cc1cc2oc(C(=O)Nc3c(C)n(C)n(-c4ccccc4)c3=O)c(C)c2cc1Cl,-23.5%
27,CCCOc1ccc(/C=C/C(=O)O)cc1OC,2.04%
28,COC(=O)c1sc(S(=O)(=O)Nc2ccc(C)c(C)c2)c(C(=O)OC)c1C,13.6%

row,SMILES,"hERG current change (%, negative = inhibition) at 1uM"
1,O=C(NCCCn1ccnc1)c1ccc(Cl)c(Cl)c1,1.57%
2,O=C(NNC(=S)NC(=O)c1ccccc1)c1cccnc1,16.7%
3,Cc1cccc(C(C)C)c1NC(=O)COC(=O)CNS(=O)(=O)c1ccccc1,13.8%
4,Cc1cc(C)nc(N2CCC(C(=O)NCCc3ccccc3)CC2)n1,12.6%
5,COc1ccc(CNC(=O)CN(Cc2ccc(Cl)cc2)S(C)(=O)=O)cc1,-8.55%
6,Cc1cc(OCc2nnc(SCC(=O)OC3CCCCC3)o2)ccc1Cl,2.16%
7,CCc1ccc(N2C(=O)CN(Cc3ccccc3)C2=S)cc1,15.8%
8,COc1ccccc1NC(=O)c1nnn(CC(=O)Nc2cccc(SC)c2)c1N,3.19%
9,Cc1nc2scc(C)n2c(=O)c1S(=O)(=O)Nc1ccc(N2CCOCC2)cc1,5.65%
10,O=C(CN1C(=O)c2ccccc2C1=O)c1ccc(F)cc1,15.2%
11,COc1cc(C(=O)NC2CCCC(C)C2C)ccc1OCC(=O)N1CCOCC1 (stereo not shown),15.3%
12,Cc1ccccc1C(=O)NC1CC2CCCC(C1)N2C(=O)Nc1ccccc1 (stereo not shown),6.06%
13,Nc1nc(CSc2nnnn2-c2ccc(Cl)cc2)nc(N2CCOCC2)n1,11.5%
14,O=C1CSC(=S)N1N1C(=O)c2cccc([N+](=O)[O-])c2C1=O,5.64%
15,O=C(CSc1ccc(Cl)cc1)NN=C1CCCCCC1,-1.74%
16,O=C(Nc1ccc2c(c1)OCCO2)c1cc2sccc2n1Cc1ccc(F)cc1,2.45%
17,Cc1ccccc1C(=O)NCC(=O)OC(C)C(=O)NCc1ccco1 (stereo not shown),11.4%
18,Cc1ccc(CN2C(=O)CCC2C(=O)NCCCN2CCCCC2C)cc1 (stereo not shown),7.26%
19,O=C(Nc1cccc(S(=O)(=O)N2CCCC2)c1)c1cc(S(=O)(=O)N2CCOCC2)ccc1F,2.43%
20,CC(C)CCNC(=O)c1ccc(Cn2c(=S)[nH]c3ccccc3c2=O)cc1,10.9%
21,COC(=O)c1sccc1NC(=O)Nc1cc(OC)ccc1OC,-0.927%
22,S=C(Nc1ccccc1)Nc1cccc(Cl)c1Cl,5.64%
23,COc1ccc(NC(=O)CCc2c(C)nc3nc(CNC(=O)c4cccc(F)c4)nn3c2C)cc1OC,29.1%
24,O=C(NCCc1c[nH]c2ccccc12)c1ccc2c(c1)OCO2,8.47%
25,CCN(CC)c1nc(N)c(C#N)c(CC#N)c1C#N,-0.706%
26,COC(=O)c1sccc1NC(=O)c1ccc(Br)s1,18.5%
27,Cc1ccc(NC(=O)N2CCC(O)(c3ccc(Cl)cc3)CC2)cc1,11.7%
